Experimental findings from the supplement of paper PMC12889115 are described below.

The other results are listed elsewhere or left out. Single values are uncertain, as repeats are few or missing.
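Further: polymyxin B level opens the outer membrane while sparing the inner membrane, with novobiocin wells as reference growth inhibitor.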

The subject of this assay is Salmonella enterica serovar Typhimurium SL1344. In words: bacterial growth OD600 after 18 h in MHB with 0.5 µg/mL polymyxin B; higher = more bacterial growth (less inhibition). The conditions noted are these: 25 µM; polymyxin B 0.5 µg/mL; system: broth. The procedure:
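Secondary screen of the 553 primary hits at 25 µM. (i) S. Typhimurium SL1344 grown in Mueller-Hinton broth with 0.5 µg/mL polymyxin B, OD600 read after 18 h. (ii) SAFIRE assay: RAW 264.7 macrophages infected with S. Typhimurium sifB::gfp (MOI 30); compound added 2 h post-infection; cells fixed at 18 h; GFP-positive pixel fraction per macrophage imaged by confocal microscopy and expressed as % of DMSO control.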
Regarding `Cc1cccc(S(=O)(=O)N2CCCC(CO)(Cc3cccc(Cl)c3)C2)c1` (stereo not given), the “bacterial growth OD600” value was -0.019.
As for `COc1ccc(CC2(CCC(=O)N3CCC(Oc4ccc(F)cc4)CC3)CCC(=O)N2)c(F)c1` (stereo not given), the figure is 0.059; as for `CO[C@H]1[C@H](NC(=O)c2ccccn2)c2ccccc2C12CCN(C(=O)C#Cc1ccccc1)CC2`, 0.001.
On to `Cc1oc(-c2cccs2)nc1CN1CCCCC1c1nccs1` (stereo not given), for which the “bacterial growth OD600” value worked out at 0.619.
For `CCOc1ccc2nc(N3CCC(NC(Cn4cccn4)c4ccccc4)CC3)nc(C)c2c1` (stereo not given) the value was -0.023; for `Cc1ccc2c(c1)CN(CC(=O)NCC1(c3ccccc3)CCOCC1)CC(c1ccsc1)O2` (stereo not given), -0.004.
As for `CN(C(=O)CC1(c2ccccc2Cl)CC(=O)N(C2CCCC2)C1=O)C(C1CC1)C1CC1` (stereo not given), the figure is 0; as for `O=C(CC1(c2cccc(F)c2)CC(=O)N(C2CCCC2)C1=O)N1CCC(C(O)c2cccs2)CC1` (stereo not given), -0.006.
Take `Cc1ccc(-c2n[nH]cc2CN2CCN(c3ccc(Cl)cn3)CC2)cc1C`: the “bacterial growth OD600” value was 0.001.
As for `Cc1ccccc1-n1ncc2c1CC(C)(C)CC2NC(=O)CC(F)(F)F` (stereo not given), the figure is 0.193; as for `COCCCN1C(=O)CC(CC(=O)N2CCCC(c3ccccc3C)C2)(c2ccccc2Cl)C1=O` (stereo not given), -0.007; as for `Cc1ccn(CCC(=O)N2CCC3(CC2)CC3C(=O)NCCC(c2ccccc2)c2ccccc2)n1` (stereo not given), 0.362.
For `CCC(=O)C1CCCN(C(=O)C2CCCN(c3nc(C)c4ccc(OC)cc4n3)C2)C1` (stereo not given) the value was 0.006.
For `O=C(c1ccccc1OC1CCN(Cc2ccc(Cl)s2)CC1)N1CCCCC1` the value was 0.003.
`c1ccc(-c2nc(CNc3nc4nonc4nc3NC3CC3)cs2)cc1`: the “bacterial growth OD600” value is -0.001.
As to `CCCc1ccc2oc(C(=O)NCCc3cccnc3)c(C)c2c1`, the “bacterial growth OD600” value is -0.004.
As for `CCOC(=O)C1(CCCc2ccccc2)CCN(C(=O)C2CC23CCC3)CC1` (stereo not given), the figure is -0.001; as for `COc1ccc2cc(CN(Cc3ccco3)C(=O)CCn3ccc(C)n3)c(N3CCCCCC3)nc2c1`, 0; as for `OCC1CCCCN1c1ccc(-c2nc(CCc3ccccc3)no2)cn1` (stereo not given), 0.004.
For `CCOC(=O)C1(Cc2ccccc2C)CCCN(S(=O)(=O)c2ccsc2)C1` (stereo not given) the value was -0.003.
For `CCC1CN(Cc2ccc3ncccc3c2)Cc2cc(OC)ccc2O1` (stereo not given) the value was 0.011; for `CCOC(=O)C1(CCc2ccccc2)CCCN(C(=O)c2ccc(COC)s2)C1` (stereo not given), 0.004; for `CCCCN(C)C(=O)c1nc2ccccn2c1CN(C)Cc1ccc(CC)cc1`, 0.005.
Turning to `CC(C)Oc1ccc(C(=O)N2CCC(CO)(Cc3ccc(Cl)cc3)CC2)cc1`, the “bacterial growth OD600” value is -0.002.
As for `COc1ccc(CN2Cc3cc(C)ccc3OC(c3ccsc3)C2)cc1O` (stereo not given), the figure is -0.006; as for `CCS(=O)(=O)c1ncc(CN(C)C2CCCCC2)n1CCCc1ccccc1`, 0.003.
In the case of `CCOC(=O)C1(Cc2ccccc2C(F)(F)F)CCN(Cc2ccc(COC)o2)CC1`, the “bacterial growth OD600” value came out at 0.004.
For `CN(CCc1cnn(C)c1)c1nncc(-c2ccc3ccccc3c2)n1` the value was 0.002.
Take `Cc1cc(C)n(CC(=O)N(Cc2ccncc2)Cc2cccc(OCCc3ccc(F)cc3)c2)n1`: the “bacterial growth OD600” value was 0.001.
As for `O=C(COc1ccccc1Cl)N1CCCC(Nc2ccc3c(c2)OCCO3)C1` (stereo not given), the figure is 0.433.
Turning to `COc1ccc2c(c1)OC(C)CN(CC(C)Cc1ccc3c(c1)OCO3)C2` (stereo not given), the “bacterial growth OD600” value stood at 0.004.
Turning to `COc1cc(CN2CCOc3ccc(C(O)CCc4ccccc4)cc3C2)cc(OC)c1` (stereo not given), the “bacterial growth OD600” value was -0.008.
For `Cc1cccc(C(=O)N2CCCC(C(=O)c3cccc4ccccc34)C2)c1` (stereo not given) the value was 0.001.
Consider `CN(Cc1ccccc1C(F)(F)F)C(=O)CCC1(Cc2cccc3ccccc23)CCC(=O)N1` (stereo not given), for which the “bacterial growth OD600” value was -0.003.
As for `COCCCN1C(=O)CC(CC(=O)N2CCN(c3ccccc3C)CC2)(c2ccccc2OC)C1=O` (stereo not given), the figure is 0.007; as for `Cc1ccsc1CN(C)Cc1cnc(S(=O)(=O)C(C)C)n1Cc1ccccc1F`, 0.285; as for `Cc1ccc(OCCN(C)C(=O)C2CC23CCN(Cc2coc4ccccc4c2=O)CC3)cc1` (stereo not given), 0.531.
In the case of `O=C(Nc1cccc(-c2ccc(F)cc2)c1)C1CCCN(Cc2cccnc2)C1` (stereo not given), the “bacterial growth OD600” value is 0.001.
`c1ccc(Cc2noc(-c3ccc(NC4CCSC4)nc3)n2)cc1` (stereo not given): the “bacterial growth OD600” value stood at 0.002.
For `O=C(/C=C/c1cccc(F)c1)N(Cc1ccncc1)Cc1cccc(OCCc2ccc(F)cc2)c1` the value was -0.002.
